From the antibiotic and cytotoxicity screens of Wong et al. (2023)
The list shows a part of the results.

Experiments:
HSkMC = human skeletal muscle cells; experiment: cytotoxicity call (relative viability < 0.9); conditions: 10 µM
HepG2 = experiment: cytotoxicity call (relative viability < 0.9); conditions: 10 µM
S. aureus RN4220 = experiment: growth inhibition call (relative growth <= 0.2); conditions: 50 µM

SMILES	cytotoxicity call (HSkMC)	cytotoxicity call (HepG2)	growth inhibition call (S. aureus RN4220)
CC(C)NC(=O)Nc1ccc2c(c1)C(=O)N([C@H](C)CO)C[C@@H](C)[C@H](CN(C)S(=O)(=O)c1cn(C)cn1)OCCCC[C@H](C)O2	inactive	inactive	inactive
C[C@@H]1CCCCO[C@@H](CN(C)Cc2ccc(C(F)(F)F)cc2)[C@@H](C)CN([C@H](C)CO)C(=O)c2cc(NS(=O)(=O)c3ccccc3)ccc2O1	inactive	active	inactive
C[C@@H]1CN([C@H](C)CO)C(=O)c2cccc(NC(=O)Nc3ccc(F)cc3)c2O[C@H]1CN(C)Cc1ccc(Oc2ccccc2)cc1	inactive	inactive	inactive
C[C@H]1CN([C@@H](C)CO)S(=O)(=O)c2ccc(-c3cncnc3)cc2O[C@@H]1CN(C)C(=O)C1CCCCC1	inactive	inactive	inactive
C[C@@H]1CCCCO[C@H](CN(C)C(=O)Nc2ccc(C(F)(F)F)cc2)[C@@H](C)CN([C@H](C)CO)C(=O)c2cc(NC(=O)c3ccncc3)ccc2O1	inactive	inactive	inactive
C[C@H](CO)N1C[C@H](C)[C@@H](CN(C)S(C)(=O)=O)Oc2ccc(NC(=O)c3ccncc3)cc2CC1=O	inactive	inactive	inactive
CCS(=O)(=O)NCC[C@@H]1CC[C@@H](NS(=O)(=O)c2ccccc2C)[C@@H](CO)O1	inactive	inactive	inactive
Cc1ccc(-c2nc(-c3ccc(Cl)cc3)cs2)cc1F	inactive	inactive	inactive
N=C(N)NS(=O)(=O)c1ccc(N)cc1	inactive	inactive	inactive
Cc1noc(C)c1NC(=O)N(C)C[C@H]1Oc2c(NS(=O)(=O)c3cn(C)cn3)cccc2C(=O)N([C@H](C)CO)C[C@H]1C	inactive	inactive	inactive
C[C@H](CO)N1C[C@H](C)[C@H](CN(C)S(=O)(=O)c2cn(C)cn2)OCCCC[C@H](C)Oc2ccc(N(C)C)cc2C1=O	inactive	inactive	inactive
C[C@H](CO)N1C[C@H](C)[C@H](CN(C)C(=O)Nc2ccc(F)cc2)OCCCC[C@H](C)Oc2ccc(NC(=O)NC3CCCCC3)cc2C1=O	inactive	inactive	inactive
C[C@H]1CN([C@@H](C)CO)S(=O)(=O)c2ccc(-c3ccc(C(=O)N(C)C)cc3)cc2O[C@H]1CN(C)C(=O)C1CCC1	inactive	inactive	inactive
C[C@H]1CN([C@@H](C)CO)C(=O)Cc2cc(NC(=O)c3ccncc3)ccc2O[C@@H]1CN(C)C(=O)NC1CCCCC1	inactive	inactive	inactive
COc1ccc(S(=O)(=O)N[C@H]2C=C[C@@H](CC(=O)N3CCC(Cc4ccccc4)CC3)O[C@@H]2CO)cc1	inactive	inactive	inactive
CCOC(=O)c1cnn2c(N)c(C#N)cnc12	inactive	inactive	inactive
C=CC1CN2CCC1CC2C(O)c1ccnc2ccc(OC)cc12 (stereo not drawn)	inactive	inactive	inactive
CNCCCC12CCC(c3ccccc31)c1ccccc12.Cl	inactive	active	inactive
CC12CCC(O)CC1=CCC1C2CCC2(C)C(c3cccnc3)=CCC12 (stereo not drawn)	inactive	inactive	inactive

SMILES	cytotoxicity call (HSkMC)	cytotoxicity call (HepG2)	growth inhibition call (S. aureus RN4220)
C[C@H](CO)N1C[C@H](C)[C@H](CN(C)S(=O)(=O)c2ccc(F)cc2)OCCCC[C@H](C)Oc2ccc(NS(=O)(=O)c3ccc(Cl)cc3)cc2C1=O	inactive	inactive	inactive
COC(=O)[C@@]12CC[C@@H](C)[C@@H](C)[C@@H]1C1=CC[C@H]3[C@@]4(C)CC[C@@H](OC(C)=O)C(C)(C)[C@@H]4CC[C@@]3(C)[C@@]1(C)CC2	inactive	inactive	inactive
O=C(C[C@@H]1C=C[C@@H](NC(=O)c2cnccn2)[C@@H](CO)O1)NCc1ccccc1F	inactive	inactive	inactive
C[C@H](CO)N1C[C@H](C)[C@H](CN(C)Cc2ccc(Cl)c(Cl)c2)Oc2ccc(NS(=O)(=O)c3ccc(F)cc3)cc2CC1=O	inactive	inactive	inactive
C[C@@H]1CN([C@H](C)CO)C(=O)c2c(c3ccccc3n2C)-c2ccccc2CO[C@H]1CN(C)Cc1cccc(F)c1	inactive	inactive	inactive
COc1cccc(NC(=O)N[C@@H]2C=C[C@@H](CC(=O)N3CCN(C)CC3)O[C@H]2CO)c1	inactive	inactive	inactive
CCS(=O)(=O)N1CC[C@]2(CC1)CN(Cc1ccc(cc1)OC)[C@H](CO)c1c2c2ccc(cc2n1C)OC	inactive	inactive	inactive
O=C(C[C@H]1C[C@H]2c3cc(NC(=O)NC4CCCC4)ccc3O[C@H]2[C@H](CO)O1)NCc1ccc(Oc2ccccc2)cc1	inactive	active	inactive
COc1ccc(S(=O)(=O)N(C)C[C@@H]2OCCCC[C@@H](C)Oc3ccc(NC(=O)Nc4c(C)noc4C)cc3C(=O)N([C@@H](C)CO)C[C@@H]2C)cc1	inactive	inactive	inactive
COC(=O)[C@H](Cc1ccccc1)N1CC(/C=C/C2CC2)=C[C@@H]1[C@@H](O)CCn1cc(-c2ccc(C(=O)NO)cc2)nn1	inactive	inactive	inactive
C[C@H](CO)N1C[C@H](C)[C@H](CN(C)S(=O)(=O)c2ccc(Cl)cc2)Oc2c(NC(=O)C3CC3)cccc2C1=O	inactive	inactive	inactive
COc1ccc(S(=O)(=O)N[C@H]2CC[C@H](CCNC(=O)CN3CCOCC3)O[C@@H]2CO)cc1	inactive	inactive	inactive
C[C@H]1CN([C@@H](C)CO)C(=O)c2ccccc2-c2ccccc2CO[C@@H]1CN(C)C(=O)c1cc(Cl)cc(Cl)c1	inactive	inactive	inactive
CC1(C)O[C@H]2[C@H](O)C[C@](O)(C(N)=O)C[C@H]2O1	inactive	inactive	inactive
C[C@@H]1CCCCO[C@@H](CN(C)Cc2ccc3c(c2)OCO3)[C@H](C)CN([C@@H](C)CO)C(=O)c2cc(NS(=O)(=O)c3ccc(F)cc3)ccc2O1	inactive	inactive	inactive
Cc1ccc(S(=O)(=O)Nc2cccc3c2O[C@H](CN(C)C(=O)NC(C)C)[C@@H](C)CN([C@@H](C)CO)C3=O)cc1	inactive	inactive	inactive
CC(C)NC(=O)Nc1ccc2c(c1)C(=O)N([C@H](C)CO)C[C@H](C)[C@@H](CN(C)CC1CCCCC1)OCCCC[C@@H](C)O2	inactive	inactive	inactive
C[C@H](CO)N1C[C@H](C)[C@@H](CN(C)S(=O)(=O)c2cn(C)cn2)OCCCC[C@H](C)Oc2ccc(NC(=O)Nc3cccc4ccccc34)cc2C1=O	inactive	inactive	inactive
Cc1noc(C)c1NC(=O)Nc1ccc2c(c1)C(=O)N([C@H](C)CO)C[C@H](C)[C@H](CN(C)CC1CC1)OCCCC[C@@H](C)O2	inactive	inactive	inactive

SMILES	cytotoxicity call (HSkMC)	cytotoxicity call (HepG2)	growth inhibition call (S. aureus RN4220)
C=CCc1c(C)[nH]c(N)nc1=O	inactive	inactive	inactive
COc1ccc(S(=O)(=O)Nc2ccc3c(c2)C(=O)N([C@@H](C)CO)C[C@@H](C)[C@@H](CN(C)Cc2ccc(C(F)(F)F)cc2)OCCCC[C@H](C)O3)cc1	inactive	inactive	inactive
Fc1cncnc1	inactive	inactive	inactive
C[C@H](CO)N1C[C@H](C)[C@H](CN(C)Cc2ccc(Cl)c(Cl)c2)OCCCC[C@H](C)Oc2ccc(NC(=O)C3CCCCC3)cc2C1=O	inactive	inactive	inactive
CC(C)NC(=O)Nc1ccc2c(c1)C(=O)N([C@H](C)CO)C[C@H](C)[C@@H](CN(C)C(=O)C1CCCCC1)OCCCC[C@@H](C)O2	inactive	inactive	inactive
C[C@@H]1CN([C@H](C)CO)C(=O)Cc2cc(NS(=O)(=O)c3ccc(Cl)cc3)ccc2O[C@H]1CN(C)Cc1ccc(-c2ccccc2)cc1	active	inactive	inactive
Cn1cncc1C#N	inactive	inactive	inactive
CCC(=O)Nc1ccc2c(c1)OC[C@H](C)N(C(=O)CN1CCOCC1)C[C@H](C)[C@@H](OC)CN(C)C2=O	inactive	inactive	inactive
OC[C@H]1O[C@@H](n2cnc3c(N[C@@H]4CCOC4)ncnc32)[C@H](O)[C@@H]1O	inactive	inactive	inactive
CC=Cc1ccc2n(c1=O)C[C@H]1[C@H](CO)[C@@H](C(=O)NCC)[C@@H]2N1S(=O)(=O)c1cn(C)cn1	inactive	inactive	inactive
COc1ccc(S(=O)(=O)Nc2ccc3c(c2)CC(=O)N([C@H](C)CO)C[C@@H](C)[C@H](CN(C)S(=O)(=O)c2ccccc2)O3)cc1	inactive	inactive	inactive
COc1ccc(S(=O)(=O)Nc2ccc3c(c2)C(=O)N([C@@H](C)CO)C[C@@H](C)[C@H](CN(C)S(=O)(=O)c2ccc(C)cc2)O3)cc1	inactive	inactive	inactive
CC(C)CC#Cc1ccc2c(c1)O[C@H](CN(C)C(=O)Cc1cccnc1)[C@@H](C)CN([C@H](C)CO)S2(=O)=O	inactive	inactive	inactive
COCC#Cc1ccc2c(c1)O[C@@H](CN(C)Cc1ccc3c(c1)OCO3)[C@H](C)CN([C@H](C)CO)S2(=O)=O	inactive	inactive	inactive
C[C@@H]1CCCCO[C@@H](CN(C)Cc2ccncc2)[C@H](C)CN([C@@H](C)CO)C(=O)c2cc(NC(=O)c3ccccc3)ccc2O1	inactive	inactive	inactive
O=C(CCCCCC(=O)Nc1ccccc1O)N/N=C/[C@H](O)[C@@H](O)[C@H](O)[C@H](O)CO	inactive	inactive	inactive
Cc1noc(C)c1S(=O)(=O)N(C)C[C@@H]1Oc2ccc(NS(=O)(=O)c3ccc(F)cc3)cc2C(=O)N([C@@H](C)CO)C[C@@H]1C	inactive	inactive	inactive
C[C@H](CO)N1C[C@H](C)[C@@H](CN(C)C(=O)Cc2ccccc2)OCCCC[C@H](C)Oc2ccc(NC(=O)c3ccccc3)cc2C1=O	inactive	inactive	inactive
